The text below walks through data of publication PMC4336329 (PLoS ONE, 2015).

In all, about 310,000 compounds went through this assay and about 2,200 (0.71%) showed an effect of 50% or more. The effect is printed as a negative number. The list shows a part of the results.

Sequence of human ether-à-go-go-related gene (hERG) potassium channel (Q12809 whole entry, looked up): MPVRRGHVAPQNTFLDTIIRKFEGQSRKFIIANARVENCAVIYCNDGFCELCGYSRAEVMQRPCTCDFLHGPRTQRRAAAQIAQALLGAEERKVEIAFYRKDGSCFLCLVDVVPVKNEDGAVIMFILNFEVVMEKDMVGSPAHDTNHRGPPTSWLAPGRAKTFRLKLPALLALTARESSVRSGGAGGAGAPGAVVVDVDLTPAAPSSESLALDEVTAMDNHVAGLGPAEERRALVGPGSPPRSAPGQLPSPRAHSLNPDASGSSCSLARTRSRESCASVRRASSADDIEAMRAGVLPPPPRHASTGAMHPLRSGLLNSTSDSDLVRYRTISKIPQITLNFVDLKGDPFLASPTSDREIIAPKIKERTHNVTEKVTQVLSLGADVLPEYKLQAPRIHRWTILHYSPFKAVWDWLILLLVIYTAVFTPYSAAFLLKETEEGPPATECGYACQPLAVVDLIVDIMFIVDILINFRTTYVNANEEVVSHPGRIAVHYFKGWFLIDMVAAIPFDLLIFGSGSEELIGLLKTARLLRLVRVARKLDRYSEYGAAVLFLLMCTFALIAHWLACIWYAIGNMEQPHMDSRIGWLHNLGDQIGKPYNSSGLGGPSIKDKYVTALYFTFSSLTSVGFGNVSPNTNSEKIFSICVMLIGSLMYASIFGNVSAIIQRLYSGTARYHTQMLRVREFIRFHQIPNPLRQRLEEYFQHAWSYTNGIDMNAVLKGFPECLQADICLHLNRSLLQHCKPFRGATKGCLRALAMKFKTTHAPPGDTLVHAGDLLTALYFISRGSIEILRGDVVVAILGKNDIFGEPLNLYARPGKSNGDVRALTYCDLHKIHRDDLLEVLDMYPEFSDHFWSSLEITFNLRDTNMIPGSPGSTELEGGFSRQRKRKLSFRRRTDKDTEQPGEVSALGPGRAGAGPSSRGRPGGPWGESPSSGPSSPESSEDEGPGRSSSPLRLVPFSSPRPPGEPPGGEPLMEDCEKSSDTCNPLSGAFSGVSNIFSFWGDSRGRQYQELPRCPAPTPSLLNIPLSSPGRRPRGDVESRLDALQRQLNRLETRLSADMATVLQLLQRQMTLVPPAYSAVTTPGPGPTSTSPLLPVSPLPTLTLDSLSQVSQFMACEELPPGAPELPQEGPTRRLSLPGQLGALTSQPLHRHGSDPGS

The assay has as its target human ether-à-go-go-related gene (hERG) potassium channel (human, UniProt Q12809). Briefly: primary screen, population patch clamp on CHO cells stably expressing hERG.
On to `CCOc1ccc(NS(=O)(=O)c2ccc(C(=O)NCC(C)(C)N3CCOCC3)cc2)cc1`, for which the “hERG current change (%, negative = inhibition) at 1uM” value is recorded as -3.59%.
On to `CC(C)CN1CCC(=O)N(CCSc2ccc(Br)cc2)CC1`, for which the “hERG current change (%, negative = inhibition) at 1uM” value is given as -21.6%.
As for `Cc1ccc(C)c(C(=O)COC(=O)CNS(=O)(=O)c2ccccc2)c1`, the “hERG current change (%, negative = inhibition) at 1uM” value came out at 17%.
With `COc1ccccc1CN(CC(=O)NCc1ccco1)C(=O)CNS(=O)(=O)c1ccc(C)cc1`, the “hERG current change (%, negative = inhibition) at 1uM” value was 0.647%.
With `CN(CCc1ccccc1)Cc1c[nH]c2ccccc12.O=C(O)C(=O)O`, the “hERG current change (%, negative = inhibition) at 1uM” value is reported as -22.9%.
As for `COc1ccccc1OCCNC(=O)c1c(-c2ccccc2Cl)noc1C`, the “hERG current change (%, negative = inhibition) at 1uM” value came out at 9.26%.
As to `CCCNC(=O)N1CCC(n2nccc2NC(=O)CCOc2ccccc2)CC1`, the “hERG current change (%, negative = inhibition) at 1uM” value was 12.9%.
As for `O=C(NCCC1=CCCCC1)C1CC(=O)N(C2CCCCCC2)C1` (stereo not shown), the “hERG current change (%, negative = inhibition) at 1uM” value is reported as 12.1%.
With `CCOCCCNC(=O)CCCn1nc(C)n2c(cc3sccc32)c1=O`, the “hERG current change (%, negative = inhibition) at 1uM” value was -5.71%.
With `CC(C)(C)N1C(=O)c2ccc(C(=O)Nc3ccc(O)cc3)cc2C1=O`, the “hERG current change (%, negative = inhibition) at 1uM” value amounted to 8.41%.
On to `O=C(CN(Cc1ccccc1)S(=O)(=O)c1ccc2c(c1)OCCO2)Nc1ccc2c(c1)OCCO2`, for which the “hERG current change (%, negative = inhibition) at 1uM” value is recorded as 1.27%.
As to `COc1ccc([C@@H]2[C@@H]3C(=O)N(C(C)(C)C)C(=O)[C@@H]3[C@]3(C)C(=O)N(c4ccc(C)cc4)C(=O)N23)cc1`, the “hERG current change (%, negative = inhibition) at 1uM” value is on record as -4.96%.
Turning to `O=C(COC(=O)/C=C/c1cccs1)Nc1ccc2ccccc2c1`, the “hERG current change (%, negative = inhibition) at 1uM” value worked out at 0.199%.
In the case of `CC1(C)CC(=O)C/C(=N\NC(=O)c2cccs2)C1`, the “hERG current change (%, negative = inhibition) at 1uM” value stood at 11.9%.
Consider `CC(=O)Nc1cccc(NC(=O)Cc2cccs2)c1`, for which the “hERG current change (%, negative = inhibition) at 1uM” value is recorded as 11.5%.
Take `Cc1cccc(CCNC(=O)C2CCN(S(=O)(=O)c3cccc4nsnc34)CC2)c1`: the “hERG current change (%, negative = inhibition) at 1uM” value is recorded as 7.1%.
Take `CC(C)(C)c1ccc(Cn2cnc(-c3ccc([N+](=O)[O-])cc3)c2)cc1`: the “hERG current change (%, negative = inhibition) at 1uM” value is on record as 3.3%.
Take `O=C(CCc1c[nH]c2ccccc12)OCc1ccc(Br)cc1`: the “hERG current change (%, negative = inhibition) at 1uM” value was 16%.
In the case of `COc1ccc(N(CC(=O)Nc2ccc3c(c2)OCO3)S(=O)(=O)c2ccc(C)cc2)cc1OC`, the “hERG current change (%, negative = inhibition) at 1uM” value stood at 10.7%.
For `Cc1ccccc1CC(=O)Nc1cc(C(C)(C)C)on1`, the “hERG current change (%, negative = inhibition) at 1uM” value is 4.84%.
Take `CC1CCN(C(=O)CSc2nc3c(c(=O)n(C)c(=O)n3C)n2C)CC1`: the “hERG current change (%, negative = inhibition) at 1uM” value is 15.6%.
For `C#CCSc1cc(C(F)(F)F)nc(-c2ccccn2)n1`, the “hERG current change (%, negative = inhibition) at 1uM” value came to 6.6%.
For `O=C(O)c1ncn(Cc2ccc(Br)cc2)c1C(=O)O`, the “hERG current change (%, negative = inhibition) at 1uM” value came out at 12.3%.
Take `Nc1ccc(O)cc1C(=O)OCC(=O)c1ccc(C2CCCCC2)cc1`: the “hERG current change (%, negative = inhibition) at 1uM” value is reported as 9.26%.
On to `COc1ccc(S(=O)(=O)NCCCn2ccnc2)cc1C(C)(C)C`, for which the “hERG current change (%, negative = inhibition) at 1uM” value was -17.4%.
For the molecule `Cc1c(C(=O)N2CCCCC2)nnn1-c1nonc1N`, the “hERG current change (%, negative = inhibition) at 1uM” value worked out at 5.84%.
Turning to `CCN(CC)CCNc1nc(-c2ccccc2)nnc1C(F)(F)F`, the “hERG current change (%, negative = inhibition) at 1uM” value is on record as -6.37%.
For the molecule `COc1ccc(CC2C(=O)N(c3ccccc3)C(=O)N(c3ccccc3)C2=O)c(OC)c1`, the “hERG current change (%, negative = inhibition) at 1uM” value was found to be 9.85%.
Consider `Cc1onc(-c2c(F)cccc2Cl)c1C(=O)NCCN1CCNC1=O`, for which the “hERG current change (%, negative = inhibition) at 1uM” value was found to be 12.1%.
`CNC(=O)C1C2C=CC3(O2)C1C(=O)N(C1CC1)C3C(=O)NCc1ccc(OC)cc1` (stereo not shown): the “hERG current change (%, negative = inhibition) at 1uM” value was 10.4%.
The same measure for `Cc1ccc(CSCC(=O)N/N=C/c2ccc(OCC(=O)Nc3ccc(C)cc3)cc2)cc1`: 10.8%; for `Cc1cccc(Oc2c([N+](=O)[O-])c(=O)n(C)c3ccccc23)c1`: 7.25%.
For `O=C(Nc1c(F)cc(F)cc1Br)c1ccco1`, the “hERG current change (%, negative = inhibition) at 1uM” value was determined as 5.74%.
In the case of `COc1cc2c(cc1OC)/C(=C/C(=O)c1ccccc1F)NCC2`, the “hERG current change (%, negative = inhibition) at 1uM” value was 5.54%.
Regarding `O=C(N[C@@H](Cc1ccccc1)C(=O)NC1CC1)c1ccc(Cl)cc1`, the “hERG current change (%, negative = inhibition) at 1uM” value was 6.16%.
For `CCOc1ccc(CCNC(=O)COn2nnc3ccc(S(=O)(=O)N4CCOCC4)cc32)cc1OCC`, the “hERG current change (%, negative = inhibition) at 1uM” value amounted to 4.85%.
Turning to `COc1ccc(NC(=O)C(=O)NCC(=O)Nc2cc(OC)ccc2OC)cc1`, the “hERG current change (%, negative = inhibition) at 1uM” value worked out at 5.79%.
As for `Cc1cccc(-n2c(O)c(C=NCc3ccccn3)c3ccccc3c2=O)c1`, the “hERG current change (%, negative = inhibition) at 1uM” value came out at 9.42%.
As for `CCOC(=O)c1sc(N(Cc2ccccc2)C(=O)CN2C(=O)CN(C)C2=O)nc1C`, the “hERG current change (%, negative = inhibition) at 1uM” value was -0.796%.
On to `COc1ccc(C(=O)N[C@H]2CCCCNC2=O)cc1OC1CCN(C(C)C)CC1`, for which the “hERG current change (%, negative = inhibition) at 1uM” value is 9.99%.
The same measure for `C=CCS/C(N)=N\N=C\c1c(O)ccc2ccccc12`: 13.3%; for `Cn1c(CO)cnc1SCC(=O)c1ccc(F)cc1`: 11.2%; for `O=C(Cc1ccccc1)Nc1ccc(N2CCCC2)cc1`: -0.653%.
As for `COc1cccc(-c2csc(N3CCN(C(=S)Nc4ccccc4)CC3)n2)c1`, the “hERG current change (%, negative = inhibition) at 1uM” value worked out at 6.08%.
Take `COc1cc(C2N(c3ccc(Cl)c(Cl)c3)C(=O)C3CCCN32)cc(OC)c1OC` (stereo not shown): the “hERG current change (%, negative = inhibition) at 1uM” value is 4.04%.
On to `CCCOc1ccc(C2/C(=C(/O)c3ccc(F)cc3)C(=O)C(=O)N2CCCN(C)C)cc1` (stereo not shown), for which the “hERG current change (%, negative = inhibition) at 1uM” value is listed as 12.6%.
`Cn1cccc1/C=C1\SC(=S)N(NC(=O)c2ccccc2O)C1=O`: the “hERG current change (%, negative = inhibition) at 1uM” value was 9.79%.
Consider `Cc1ccc(S(=O)(=O)N2CCCCC2)cc1C(=O)NCc1ccccn1`, for which the “hERG current change (%, negative = inhibition) at 1uM” value is on record as 13.8%.
The same measure for `Cc1ccccc1OC(C)C(=O)Nc1ccc(S(=O)(=O)Nc2nccs2)cc1` (stereo not shown): 8.07%; for `O=C1COc2ccc(C(=O)COc3ccc(Cl)cc3Br)cc2N1`: 2.1%.
In the case of `Cc1cc(NC(=O)CCC(=O)N(c2ccccc2F)C(C(=O)NC2CCCC2)c2ccccc2)no1` (stereo not shown), the “hERG current change (%, negative = inhibition) at 1uM” value is on record as 18.4%.
Under `O=C(Cc1cscn1)c1ccc(O)cc1O` stands -2.76%.
As for `CC1(C)CC(=O)C(C(=O)C2CCN(S(=O)(=O)c3ccccc3)CC2)C(=O)C1`, the “hERG current change (%, negative = inhibition) at 1uM” value turned out to be 8.19%.
For `Cc1c(=O)n(OCc2cccc(F)c2)c2ccccc2[n+]1[O-]`, the “hERG current change (%, negative = inhibition) at 1uM” value was -0.81%.
For `N#Cc1nc(-c2ccc(Cl)cc2)oc1N1CCCCC1`, the “hERG current change (%, negative = inhibition) at 1uM” value was determined as 15.6%.
Consider `COc1ccc2c(c1)c1ncn(CCc3ccccc3)c(=O)c1n2C`, for which the “hERG current change (%, negative = inhibition) at 1uM” value is reported as -0.629%.
As to `NC(=O)CC[C@@H]1NC(=O)[C@@H]2CCCN2C(=O)c2cc([N+](=O)[O-])cc(F)c2NCCC[C@@H](C(N)=O)NC1=O`, the “hERG current change (%, negative = inhibition) at 1uM” value is reported as -15.8%.
On to `CCNC(=O)c1ccc2c(c1)S(=O)(=O)c1ccccc1C2=O`, for which the “hERG current change (%, negative = inhibition) at 1uM” value is on record as -25.4%.
`O=C(OCC(=O)N1CCCCC1)c1cccc(NS(=O)(=O)c2ccccc2)c1`: the “hERG current change (%, negative = inhibition) at 1uM” value was determined as 12.4%.
Under `O=c1oc2ccccc2cc1-c1nc2ccccc2o1` stands 7.04%.
The same measure for `Cc1ccc(NC(=O)c2cccc(N3C(=O)C4C5CCC(C5)C4C3=O)c2)c(C)c1` (stereo not shown): 12.4%.
Under `Oc1ccccc1C(=S)N1CCCCCC1` stands 6.21%; under `COc1ccccc1OCc1cc(C(=O)NCCN2CCCC(O)C2)no1` (stereo not shown), 6.34%.
Take `CCCCn1c(O)c(/C=N/NC(=O)c2ccncc2)c(=O)[nH]c1=S`: the “hERG current change (%, negative = inhibition) at 1uM” value is reported as 14.6%.
As for `COc1ccc(C2(C(=O)Nc3ccc(OC)cc3OC)CCCC2)cc1`, the “hERG current change (%, negative = inhibition) at 1uM” value was determined as 14.6%.
Turning to `CCCCC1(C)Cc2ccccc2C(=S)N1` (stereo not shown), the “hERG current change (%, negative = inhibition) at 1uM” value is 13.9%.
Turning to `COc1cccc(NC(=S)N(CCc2c(C)[nH]c3ccc(C)cc23)Cc2cccs2)c1`, the “hERG current change (%, negative = inhibition) at 1uM” value was found to be 2.53%.
Under `CCC(CO)(C(=O)OC1C[N+]2(C)CCC1CC2)c1ccccc1.[I-]` (stereo not shown) stands 13.9%; under `NS(=O)(=O)c1cccnc1Nc1ccc(Cl)c(Cl)c1`, -2.58%.
The same measure for `O=C(c1cnsn1)N1CCCC(Nc2ccc(F)c(F)c2)C1` (stereo not shown): 8.17%; for `CC1CCN(C(=O)COc2ccccc2F)CC1`: 15.8%.
Regarding `COc1ccc(-c2nn(C)c(=O)[nH]2)cc1`, the “hERG current change (%, negative = inhibition) at 1uM” value is 17.1%.
As for `Cc1cc(C(=O)COC(=O)c2ccc(O)cc2)c(C)n1CC(F)(F)F`, the “hERG current change (%, negative = inhibition) at 1uM” value amounted to 7.78%.
As to `O=C(CSCc1ccc(Br)cc1)N1CCOCC1`, the “hERG current change (%, negative = inhibition) at 1uM” value was 5.03%.
On to `Cc1c(C(=O)C(=O)N2CCN(C)CC2)c2ccccc2n1C`, for which the “hERG current change (%, negative = inhibition) at 1uM” value stood at 10.9%.
For `O=C(NCc1nnc(SCC(=O)N2CCOCC2)o1)c1c(F)cccc1F`, the “hERG current change (%, negative = inhibition) at 1uM” value is given as 6.78%.
Consider `CCn1c(SCc2ccc([N+](=O)[O-])cc2)nnc1C(C)NC(=O)c1ccccc1Br` (stereo not shown), for which the “hERG current change (%, negative = inhibition) at 1uM” value is recorded as 3.3%.
The same measure for `COc1ccccc1C1C=C(c2ccc(Cl)cc2)Nc2nc(N3C(=O)CCC3=O)nn21` (stereo not shown): -1.99%.
The same measure for `CCOc1ccc(N(CC(=O)NC(C)(C)C)C(=O)c2ccco2)cc1`: 0.399%; for `CS(=O)(=O)N(CC(=O)Nc1ccccc1C(=O)N1CCOCC1)c1ccccc1`: 19%; for `c1ccc(C2CN3CCC2CC3)cc1` (stereo not shown): 7.2%.
The same measure for `CCN(CC)S(=O)(=O)c1ccc(N2CCN(S(=O)(=O)c3ccc4c(c3)OCCO4)CC2)nc1`: 7.28%; for `COc1ccc(C(=O)NC(=S)N2CCOCC2)cc1Br`: -2.56%; for `O=C(c1ccc(-n2nc(C(F)(F)F)c3c2CCCC3)cc1)N1CCOCC1`: 6.51%.
As to `Cc1ccc(N(C(=O)c2csnn2)C(C(=O)NC2CCCCC2)c2ccncc2)cc1` (stereo not shown), the “hERG current change (%, negative = inhibition) at 1uM” value is 8.32%.
For the molecule `CCc1ccccc1NC(=O)c1cccc(NC(=O)/C=C/c2ccco2)c1`, the “hERG current change (%, negative = inhibition) at 1uM” value amounted to 3.1%.
Under `COc1ccc(OCCSc2ccc(S(=O)(=O)N3CCCC3)cn2)cc1` stands 16.6%; under `COc1ccc(-n2nc3cc(C)c(NC(C)=O)cc3n2)cc1`, 9.55%.
